Source: paper PMC4336329 (PLoS ONE, 2015)
The campaign covered roughly 310,000 compounds. About 14,000 (4.5%) showed an effect of 50% or more. Effects have a minus sign here. The list shows a part of the results.

These compounds were tested against human ether-à-go-go-related gene (hERG) potassium channel (human, UniProt Q12809) (assay: primary screen, population patch clamp on CHO cells stably expressing hERG).
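Also: peak tail current of the secondary pulse compared with the same well before compound.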

Chain of human ether-à-go-go-related gene (hERG) potassium channel (Q12809 whole entry, looked up): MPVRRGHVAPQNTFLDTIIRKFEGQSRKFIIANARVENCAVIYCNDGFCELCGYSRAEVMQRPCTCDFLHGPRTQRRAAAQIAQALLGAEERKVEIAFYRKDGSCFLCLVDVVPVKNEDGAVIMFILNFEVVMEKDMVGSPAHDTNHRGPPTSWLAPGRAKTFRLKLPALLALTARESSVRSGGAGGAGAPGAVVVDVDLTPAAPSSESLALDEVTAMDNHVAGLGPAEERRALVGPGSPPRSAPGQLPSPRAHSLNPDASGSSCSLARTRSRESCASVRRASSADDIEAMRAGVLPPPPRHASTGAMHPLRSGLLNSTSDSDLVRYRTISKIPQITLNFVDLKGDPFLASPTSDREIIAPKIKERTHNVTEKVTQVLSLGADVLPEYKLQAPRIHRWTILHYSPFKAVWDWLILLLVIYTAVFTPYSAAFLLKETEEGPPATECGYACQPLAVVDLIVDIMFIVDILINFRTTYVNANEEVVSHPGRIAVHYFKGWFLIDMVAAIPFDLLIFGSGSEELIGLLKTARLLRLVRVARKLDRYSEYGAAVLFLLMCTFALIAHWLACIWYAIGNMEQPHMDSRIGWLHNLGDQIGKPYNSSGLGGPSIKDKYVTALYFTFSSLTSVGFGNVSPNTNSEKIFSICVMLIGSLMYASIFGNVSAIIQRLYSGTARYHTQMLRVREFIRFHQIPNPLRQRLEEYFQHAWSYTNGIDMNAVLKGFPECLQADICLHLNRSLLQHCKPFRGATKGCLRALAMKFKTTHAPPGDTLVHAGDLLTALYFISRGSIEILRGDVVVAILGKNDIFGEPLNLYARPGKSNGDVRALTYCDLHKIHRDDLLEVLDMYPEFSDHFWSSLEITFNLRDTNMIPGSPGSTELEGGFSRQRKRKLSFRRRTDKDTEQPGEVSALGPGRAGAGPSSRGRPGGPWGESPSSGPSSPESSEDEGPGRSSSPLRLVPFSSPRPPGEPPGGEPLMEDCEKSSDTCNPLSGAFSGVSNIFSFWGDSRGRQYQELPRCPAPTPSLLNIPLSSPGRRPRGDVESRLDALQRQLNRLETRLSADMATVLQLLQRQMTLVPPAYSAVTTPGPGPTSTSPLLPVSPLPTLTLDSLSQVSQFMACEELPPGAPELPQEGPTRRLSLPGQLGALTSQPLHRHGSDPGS

Structure (SMILES)	hERG current change (%, negative = inhibition) at 10uM [%]
OCC[C@@H]1C[C@H](O)[C@@H](O)[C@]2(CCCCO2)O1	21.2
O=C(Nc1cccc(S(=O)(=O)NC2=NCCCCC2)c1)c1cc(-c2ccccc2)nc2ccccc12	-10.8
CCOC(=O)c1c(C)[nH]c(C(=O)N2CCC(C(=O)OCC)CC2)c1C	14.5
CCCCOc1ccc(CSC2=NCCN2)cc1[N+](=O)[O-].Cl	-68.7
O=C(O)Cn1ccc2ccccc21	24.6
CCc1ccc(N2CC(C(=O)Nc3cc(C)ccc3F)CC2=O)cc1 (centres unmarked)	-0.952
O=C(NCCOc1ccc(Cl)cc1)C1CC(=O)N(c2ccc3c(c2)OCCO3)C1 (centres unmarked)	-27.9
CC(C)Nc1nc(-c2ccccc2)nnc1-c1ccccc1	-15.5
Cc1ccc(NC(=O)c2cc3ccccc3o2)cc1	6.1
O=C(O)C(=O)O.OCCNCCCCOc1cccc(Br)c1	-12.4
CCOc1ccc(NS(=O)(=O)c2coc(C(N)=O)c2)cc1	11
COC(=O)NCC(C)OC(=O)Nc1ccc(Cl)cc1 (centres unmarked)	11.3
CC1CCCC(C)N1C(=O)COC(=O)Cn1cnc2c1c(=O)n(C)c(=O)n2C (centres unmarked)	11.9
O=C(Cn1cc(/C=C\[N+](=O)[O-])c2ccccc21)Nc1ccccc1	4.86
COc1ccc2[nH]c3c(c2c1)CCN1C(=O)N([C@@H](C)C(=O)NCC2CCCO2)C(=O)[C@]31C (some centres unmarked)	-6.78
CC1(C)CC(=O)C2=C(C1)NC(Nc1nc3ccccc3o1)=NC2c1ccccn1 (centres unmarked)	-25
CCN(C(=O)COC(=O)CNS(=O)(=O)c1ccc2ccccc2c1)C1CCCCC1	-18.2
CCCc1c(NC(=O)Nc2ccc(F)cc2)cnn1-c1ccccc1	8.19
O=C(CCN1C(=O)C2CC=CCC2C1=O)NC1CCCCC1 (centres unmarked)	-9.5
Cc1cc(=O)[nH]c2c1c(=O)[nH]n2C1CC(C)N(C)CC1C (centres unmarked)	7.39

Structure (SMILES)	hERG current change (%, negative = inhibition) at 10uM [%]
O=C(NCCc1ccccn1)C1CC(=O)N(Cc2ccccc2Cl)C1 (centres unmarked)	-1.93
CCOC(=O)c1oc2ccc(S(=O)(=O)Nc3ccc4c(c3)n(C)c(=O)n4C)cc2c1C	-11.4
CC(=O)NC(O)C(=O)c1ccccc1 (centres unmarked)	26
Cc1cc(C2C(C#N)=C(N)Oc3n[nH]c(C)c32)c(C)s1 (centres unmarked)	21
CCOc1ccccc1CNC(=O)CCC(=O)N1Cc2ccccc2Oc2ncccc21	-3.62
CC(=O)Nc1cccc(S(C)(=O)=O)c1	-5.87
Cc1ccc(S(=O)(=O)N2CCN(C(=O)COC(=O)c3ccc(Br)o3)CC2)c(C)c1	-10.3
Cc1cccc2sc(NS(C)(=O)=O)nc12	19.1
CC1(C)CC2CC(C)(CN2S(=O)(=O)c2cccc(N)c2)C1 (centres unmarked)	11.8
Cc1csc(SCC(=O)Nc2cc(S(=O)(=O)N3CCCC3)ccc2Cl)n1	-24.4
COc1ccc(/C=C/C(=O)c2ccccc2O)cc1CN1CCOCC1	-17.7
Cc1nnc2n(-c3ccccc3)c(=O)c3c4c(sc3n12)COC(C)(C)C4	-6.75
C=CCN1CCN(C(=O)c2ccc3c(c2)OCO3)CC1	24.1
O=C(COC(=O)c1cccnc1Nc1ccccc1F)NC1CC1	-0.164
Cc1ccc(Oc2ncccc2/C=N/OCc2ccc(Cl)c(Cl)c2)cc1	16.9
CCOC(=O)c1ccc2[nH]c(-c3ccc(S(=O)(=O)F)cc3)cc(=O)c2c1	12.6
C=CCn1c(-c2cccc([N+](=O)[O-])c2)n[nH]c1=S	15.1
O=C(Cc1ccc([N+](=O)[O-])cc1)N1CCc2ccccc2C1	-17.7
Cc1noc(C)c1COc1ccccc1C(=O)NNC(=O)c1ccccc1F	-36.9
O=C(CC12CC3CC(CC(C3)C1)C2)NCCN1CCOCC1	-4.84

Structure (SMILES)	hERG current change (%, negative = inhibition) at 10uM [%]
Cc1cc(Cn2nc(C(=O)NCc3cccs3)cc2-c2ccccc2)on1	-40.8
Cc1cc(SCC(=O)c2cccc([N+](=O)[O-])c2)nc(=O)[nH]1	12.4
O=C(CCSCc1ccccc1F)N1CCN(c2ccccn2)CC1	-27.2
Cl.O=C(NN1C(=O)CSC1=S)c1cccnc1	13
C/C(=N/NC(=O)c1cccs1)c1cccs1	11.2
Cn1c(C(=O)O)c(CC(=O)Nc2ccccc2F)c2ccccc21	0.623
Cc1cccc(NC(=O)c2cccnc2)c1C	15.1
CCOC(=O)Cc1csc(NC(=O)CCC(=O)O)n1	23.1
COc1ccc(NC(=O)CN(C)C(=O)Cc2c[nH]c3ccccc23)cc1	-5.97
COC(C(=O)N1CCC(CCC(=O)Nc2ccccc2)CC1)c1ccccc1 (centres unmarked)	-6.28
COc1ccc([N+](=O)[O-])cc1NC(=S)NC(NC(=O)Cc1ccc(OC)c(OC)c1)C(Cl)(Cl)Cl (centres unmarked)	0.195
C/C(=N\Nc1ccc([N+](=O)[O-])cc1)c1ccc(N2CCOCC2)cc1	4.46
COc1cccc(-c2n[nH]c3c2CCC3)c1	-5.81
O=S(=O)(NCc1cccnc1)c1ccc2ccccc2c1	8.09
COc1cc2cc(C[C@H](C)O)oc(=O)c2cc1OC	16.7
Cc1cccc(C(=O)NNC(=O)C2CC2)c1	-5.33
O=C(c1cc(Cl)nc2ccccc12)N(Cc1nnc(-c2ccccc2Cl)o1)C1CC1	-21.1
CC1Cc2ccccc2N1Cc1cc(=O)n2ccsc2n1 (centres unmarked)	10.6
O=Cc1cc2ccccc2nc1SCc1ccc(Cl)cc1	-1.55
